# For part of its entries the source gives two or more results. Only these are listed. An entry can have further records. Values given together are repeats (runs, samples, wells, individuals or studies). Dates in brackets are months of testing.
# System: 435261-313-R-J1-PDC complex spheroid viability
# Experiment: Anticancer human tumor 435261-313-R-J1-PDC patient-derived colon adenocarcinoma cell line growth inhibition [GQUAD]
# Conditions: for viability, T/C: stronger effect = lower value; for IC50: compound alone
# From the text: DNA G-quadruplex Stabilizer Agents in Combinations in Complex Spheroids
# A high-throughput screen of multi-cell type tumor spheroids was designed to identify active combinations of DNA G-quadruplex stabilizer agents and targeted small molecules. Complex spheroids include a stromal component modeled by human endothelial cells (HUVEC) and fibroblasts modeled by human mesenchymal stem cells (MSCs). The concentration ranges selected for each drug and investigational agent were based upon clinically achievable concentrations if the clinical Cmax of the agent was known.
# Compounds. The drugs and investigational agents: pidnarulex (CX-5461; NSC782164), APTO-253 (NSC789042), BRACO-19 (NSC847499), peposertib (NSC802822), ceralasertib (NSC780249), elimusertib (NSC800525), camonsertib (NSC841442), AZD-1390 (NSC803789), olaparib (NSC753686), talazoparib (NSC767125), ART-558 (NSC835418), sotorasib (NSC818433), MRTX-1133 (NSC836407), SN-38 (NSC673596), topotecan (NSC609699), etoposide (NSC141540), doxorubicin (NSC123127), gemcitabine (NSC613327), 5-fluorouracil (NSC19893), paclitaxel (NSC125973), vemurafenib (NSC761431), panobinostat (NSC761190), R-306465 (JNJ-16241199; NSC773264), adavosertib (NSC754352), TP-3654 (NSC805149), carboplatin (NSC241240), KSQ-4279 (NSC840948), and staurosporine (NSC755774) were obtained from the National Cancer Institute (NCI) Developmental Therapeutics Program Chemical Repository (34). The FDA-approved anticancer drug set is available from the NCI Developmental Therapeutics Program. […] The stock solutions were prepared in dimethyl sulfoxide (DMSO, Sigma-Aldrich, St. Louis, MO, cat. D2650) at 800-fold the tested concentration and stored at -70 degrees C prior to their use. All drugs and investigational agents were tested over a range starting from a high concentration at or near the clinical Cmax and decreasing in half-log increments. If the clinical Cmax for an agent had not been determined, the highest concentration tested was 10 microM.
# 2.3 Cell Culture. All cells were maintained in an incubator at 37 degrees C and 5% CO2 with 95% humidity. The PDC lines were cultured according to standard operating procedures established by the NCI PDMR. All PDCs were thawed and cultured in Matrigel-coated flasks prepared with a working solution of 1X Ham's F-12 nutrient mix, without supplementation (Invitrogen, cat. 11765054), 100 U/mL penicillin-streptomycin (Invitrogen, cat. 15140122), and 2.5% Matrigel (Corning Inc., cat. 354248) for the first three passages. The 857933-349-R-J2-PDC line was cultured in 6C/Colon 1B media, which includes advanced DMEM/F-12 (Thermo Fisher Scientific, cat. 12634028), 10 mM HEPES (Thermo Fisher Scientific, cat. 15630080), 1X GlutaMAX supplement (Thermo Fisher Scientific, cat. 35050061), 0.1 mg/mL primocin (InvivoGen, cat. ant-pm-2), 10% defined fetal bovine serum, heat inactivated (HyClone Laboratories Inc., cat. SH30070.03HI), 50% L-WRN conditioned media (ATCC, cat. CRL-3276), 1.25 mM N-Acetyl-L-cysteine (Sigma-Aldrich, cat. A9165), 10 mM nicotinamide (Sigma-Aldrich, cat. N0636), 1X B-27 supplement (Thermo Fisher Scientific, cat. 17504044), 1X N-2 supplement (Thermo Fisher Scientific, cat. 17502048), 10 microM Y-27632 dihydrochloride (Tocris Bioscience, cat. 1254), and 50 ng/mL human EGF recombinant protein (Thermo Fisher Scientific, cat. PHG0311). The 485176-168-R4-J1-PDC line was cultured in Panc media, which includes all 6C/Colon 1B media components plus 100 ng/mL human FGF-10 (Thermo Fisher Scientific, cat. 100-26), 500 nM SB-431542 (Selleckchem, cat. S1067), and gastrin (Tocris, cat. 3006).
# […]
# 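Further: spheroids exposed to the agents for seven days before readout.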
# 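Wherever viability, T/C is given: percent of vehicle control viability with DMSO wells as 100%.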
SMILES,"viability, T/C (compound alone 0.1 µM)","viability, T/C (compound alone 0.316 µM)","viability, T/C (compound alone 1 µM)",IC50,other results
CN(C)c1ccc(Nc2c3ccc(NC(=O)CCN4CCCC4)cc3nc3cc(NC(=O)CCN4CCCC4)ccc23)cc1,"88, 76, 104, 107, 73.7, 99.5, 92.7, 105, 94, 103, 101%","105, 82.5, 96.7, 121, 91.3, 92.4, 95.9, 86.5, 78.3, 73.3, 83.1%","98.1, 90.2, 84.9, 95.6, 73.2, 85.4, 84.7, 74.2, 109, 94.5, 71%",,"viability, T/C (compound alone 0.0316 µM): 113, 89.4, 94.5, 81.2, 93.8, 87, 98.7, 104, 88.1, 86, 78.7%; IC50 (run of 02/26/2024): 6.04 µM, 6.43 µM, 7.43 µM, 6.84 µM, 6 µM, 5.51 µM, 4.83 µM, 3.58 µM, 8.69 µM, 7.12 µM, > 10 µM"
CCc1c2c(nc3ccc(O)cc13)-c1cc3c(c(=O)n1C2)COC(=O)[C@]3(O)CC,,,,"23 nM, 19.4 nM, > 316 nM",
Cc1cnc(CNC(=O)c2c(=O)c3ccc(N4CCCN(C)CC4)nc3n3c2sc2ccccc23)cn1,,,,,"IC50 (run of 02/20/2024): 753 nM, 1.06 µM, 527 nM and 513 nM, 1.25 µM, 327 nM, 783 nM, 434 nM, 351 nM, 637 nM [2024-02]"
CC(=O)O[C@H]1C(=O)[C@@]2(C)[C@H]([C@H](OC(=O)c3ccccc3)[C@]3(O)C[C@H](OC(=O)[C@H](O)[C@@H](NC(=O)c4ccccc4)c4ccccc4)C(C)=C1C3(C)C)[C@]1(OC(C)=O)CO[C@@H]1C[C@@H]2O,,,,216 nM and > 10 µM,
Cc1[nH]c2ccc(F)cc2c1-c1nc2c3cccnc3c3ncccc3c2[nH]1,"104, 86, 90.9, 92.1, 138, 98.2, 102, 77.7%","102, 84.8, 63.5, 86.7, 78, 93.1, 75.2, 65.8%","78.2, 69.7, 77.3, 78.5, 67.2, 50.6, 52.5, 78.1%",,

# Source: PubChem BioAssay AID2060494 (Molecular Pharmacology Branch, DTP, NCI, 2025)
